# From the supplement of paper PMC8728848
# Some of the results follow.
# B1: CVNH3T (Magnaporthe grisea) (protein)
# chain: GSHIGPYGNYAGNFSGSSRDICLDGARLRAECRRGDGGYSTSVIDLNRYLSNDNGHFRWVSGGGGGGGTATVTVQQGDTLRDIGRRFDCDFHEIARRNNIQNEDLIYPGQVLQVPTKGGSGGGAGNFWDSARDVRLVDGGKVLEAELRYSGGWNRSRIYLDEHIGNRNGELIHC
# Columns and labels:
# Assay in all cases: glycan array binding signal (z-score within array); higher = stronger binding
# Details in all cases: glycan notation: IUPAC condensed, linker removed
# [1] = target: Gal(b1-4)GlcNAc(b1-3)[Gal(b1-4)GlcNAc(b1-6)]GalNAc
# Outline: (§1)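 From the Consortium for Functional Glycomics database, 3228 arrays were curated, keeping only those whose protein sequence was available. Binding is given as a within-array Z-score averaged across arrays sharing a protein sequence and across linkers. Negative Z-scores can be read as non-binding.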
# [2] = target: Gal(b1-4)GlcNAc(b1-6)GalNAc
# Outline: as §1
# [3] = target: Gal(b1-4)GlcNAc(b1-6)[Gal(b1-3)]GalNAc
# Outline: as §1
# [4] = target: Gal(b1-4)GlcNAc(b1-6)[Gal(b1-3)]GlcNAc
# Outline: as §1
# Gal3S(b1-3)GalNAc = target: Gal3S(b1-3)GalNAc
# Outline: as §1
# Gal3S(b1-3)GlcNAc = target: Gal3S(b1-3)GlcNAc
# Outline: as §1
# [5] = target: Gal3S(b1-3)[Fuc(a1-4)]GlcNAc
# Outline: as §1
# Gal3S(b1-4)Glc = target: Gal3S(b1-4)Glc
# Outline: as §1
# Gal3S(b1-4)Glc6S = target: Gal3S(b1-4)Glc6S
# Outline: as §1
# Gal3S(b1-4)GlcNAc = target: Gal3S(b1-4)GlcNAc
# Outline: as §1
# Gal3S(b1-4)GlcNAc6S = target: Gal3S(b1-4)GlcNAc6S
# Outline: as §1
# Gal3S6S(b1-4)GlcNAc = target: Gal3S6S(b1-4)GlcNAc
# Outline: as §1
# Gal3S6S(b1-4)GlcNAc6S = target: Gal3S6S(b1-4)GlcNAc6S
# Outline: as §1
# Gal4S(b1-4)GlcNAc = target: Gal4S(b1-4)GlcNAc
# Outline: as §1
# Gal4S6S(b1-4)GlcNAc = target: Gal4S6S(b1-4)GlcNAc
# Outline: as §1
# Gal6S(b1-4)Glc = target: Gal6S(b1-4)Glc
# Outline: as §1
# Gal6S(b1-4)Glc6S = target: Gal6S(b1-4)Glc6S
# Outline: as §1
# Gal6S(b1-4)GlcNAc = target: Gal6S(b1-4)GlcNAc
# Outline: as §1
# GalNAc(a1-3)Gal = target: GalNAc(a1-3)Gal
# Outline: as §1
# GalNAc(a1-3)GalNAc = target: GalNAc(a1-3)GalNAc
# Outline: as §1
# [6] = target: GalNAc(b1-3)Gal(a1-4)Gal(b1-4)GlcNAc
# Outline: as §1
# GalNAc(b1-4)GlcNAc = target: GalNAc(b1-4)GlcNAc
# Outline: as §1
# Glc(a1-4)Glc = target: Glc(a1-4)Glc
# Outline: as §1
# Glc(a1-6)Glc(a1-6)Glc = target: Glc(a1-6)Glc(a1-6)Glc
# Outline: as §1
# Glc(b1-4)Glc = target: Glc(b1-4)Glc
# Outline: as §1
# Glc(b1-6)Glc = target: Glc(b1-6)Glc
# Outline: as §1
# GlcA(b1-3)Gal = target: GlcA(b1-3)Gal
# Outline: as §1
# GlcA(b1-6)Gal = target: GlcA(b1-6)Gal
# Outline: as §1
# [7] = target: GlcNAc(a1-3)Gal(b1-4)GlcNAc
# Outline: as §1
# [8] = target: GlcNAc(a1-6)Gal(b1-4)GlcNAc
# Outline: as §1
# [9] = target: GlcNAc(b1-2)Gal(b1-3)GlcNAc
# Outline: as §1
# [10] = target: GlcNAc(b1-2)Man(a1-3)[GlcNAc(b1-2)Man(a1-6)]Man(b1-4)GlcNAc(b1-4)GlcNAc
# Outline: as §1
# GlcNAc(b1-3)Gal = target: GlcNAc(b1-3)Gal
# Outline: as §1
# [11] = target: GlcNAc(b1-3)Gal(b1-3)GalNAc
# Outline: as §1
# GlcNAc(b1-3)Gal(b1-4)Glc = target: GlcNAc(b1-3)Gal(b1-4)Glc
# Outline: as §1
# [12] = target: GlcNAc(b1-3)Gal(b1-4)GlcNAc
# Outline: as §1
# [13] = target: GlcNAc(b1-3)Gal(b1-4)GlcNAc(b1-3)Gal(b1-4)GlcNAc
# Outline: as §1
# GlcNAc(b1-3)GalNAc = target: GlcNAc(b1-3)GalNAc
# Outline: as §1
# [14] = target: GlcNAc(b1-3)[GlcNAc(b1-4)][GlcNAc(b1-6)]GlcNAc
# Outline: as §1
# [15] = target: GlcNAc(b1-3)[GlcNAc(b1-6)]Gal(b1-4)GlcNAc
# Outline: as §1
# [16] = target: GlcNAc(b1-3)[GlcNAc(b1-6)]GlcNAc
# Outline: as §1
# [17] = target: GlcNAc(b1-4)Gal(b1-4)GlcNAc
# Outline: as §1
# [18] = target: GlcNAc(b1-4)GlcNAc(b1-4)GlcNAc
# Outline: as §1
# [19] = target: GlcNAc(b1-4)GlcNAc(b1-4)GlcNAc(b1-4)GlcNAc(b1-4)GlcNAc
# Outline: as §1
# [20] = target: GlcNAc(b1-4)GlcNAc(b1-4)GlcNAc(b1-4)GlcNAc(b1-4)GlcNAc(b1-4)GlcNAc
# Outline: as §1
binder,measurement,setting,value
B1,glycan array binding signal (z-score),[1],0.47
same,glycan array binding signal (z-score),[2],-0.239
same,glycan array binding signal (z-score),[3],-0.138
same,glycan array binding signal (z-score),[4],-0.23
same,glycan array binding signal (z-score),Gal3S(b1-3)GalNAc,-0.226
same,glycan array binding signal (z-score),Gal3S(b1-3)GlcNAc,-0.21
same,glycan array binding signal (z-score),[5],-0.213
same,glycan array binding signal (z-score),Gal3S(b1-4)Glc,-0.22
same,glycan array binding signal (z-score),Gal3S(b1-4)Glc6S,-0.194
same,glycan array binding signal (z-score),Gal3S(b1-4)GlcNAc,-0.223
same,glycan array binding signal (z-score),Gal3S(b1-4)GlcNAc6S,-0.222
same,glycan array binding signal (z-score),Gal3S6S(b1-4)GlcNAc,-0.16
same,glycan array binding signal (z-score),Gal3S6S(b1-4)GlcNAc6S,-0.229
same,glycan array binding signal (z-score),Gal4S(b1-4)GlcNAc,-0.224
same,glycan array binding signal (z-score),Gal4S6S(b1-4)GlcNAc,-0.207
same,glycan array binding signal (z-score),Gal6S(b1-4)Glc,-0.213
same,glycan array binding signal (z-score),Gal6S(b1-4)Glc6S,-0.226
same,glycan array binding signal (z-score),Gal6S(b1-4)GlcNAc,-0.213
same,glycan array binding signal (z-score),GalNAc(a1-3)Gal,-0.239
same,glycan array binding signal (z-score),GalNAc(a1-3)GalNAc,-0.223
same,glycan array binding signal (z-score),[6],3.84
same,glycan array binding signal (z-score),GalNAc(b1-4)GlcNAc,-0.21
same,glycan array binding signal (z-score),Glc(a1-4)Glc,-0.225
same,glycan array binding signal (z-score),Glc(a1-6)Glc(a1-6)Glc,-0.195
same,glycan array binding signal (z-score),Glc(b1-4)Glc,-0.234
same,glycan array binding signal (z-score),Glc(b1-6)Glc,-0.242
same,glycan array binding signal (z-score),GlcA(b1-3)Gal,-0.235
same,glycan array binding signal (z-score),GlcA(b1-6)Gal,-0.236
same,glycan array binding signal (z-score),[7],-0.239
same,glycan array binding signal (z-score),[8],-0.237
same,glycan array binding signal (z-score),[9],-0.233
same,glycan array binding signal (z-score),[10],-0.25
same,glycan array binding signal (z-score),GlcNAc(b1-3)Gal,-0.244
same,glycan array binding signal (z-score),[11],-0.211
same,glycan array binding signal (z-score),GlcNAc(b1-3)Gal(b1-4)Glc,-0.242
same,glycan array binding signal (z-score),[12],-0.229
same,glycan array binding signal (z-score),[13],-0.236
same,glycan array binding signal (z-score),GlcNAc(b1-3)GalNAc,-0.206
same,glycan array binding signal (z-score),[14],-0.227
same,glycan array binding signal (z-score),[15],-0.229
same,glycan array binding signal (z-score),[16],-0.222
same,glycan array binding signal (z-score),[17],-0.22
same,glycan array binding signal (z-score),[18],-0.233
same,glycan array binding signal (z-score),[19],5.39
same,glycan array binding signal (z-score),[20],3.87
